# Key:
# Experiment in all cases: cell-based or functional assay
# GDF11 [1] = target: T1, GDF11 (UniProt O95390 299-407)
# T1 sequence (looked up): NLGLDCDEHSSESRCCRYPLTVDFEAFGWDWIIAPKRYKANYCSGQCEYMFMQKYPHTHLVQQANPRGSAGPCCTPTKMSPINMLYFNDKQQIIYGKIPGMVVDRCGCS
# activin A [2] = target: T2, activin A (UniProt P08476 311-426)
# T2 sequence (looked up): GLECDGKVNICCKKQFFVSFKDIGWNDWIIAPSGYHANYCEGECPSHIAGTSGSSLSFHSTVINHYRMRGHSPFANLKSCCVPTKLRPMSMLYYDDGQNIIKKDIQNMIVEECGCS
# BMP9 = target: T3, BMP9 (UniProt Q9UK05 320-429)
# T3 sequence (looked up): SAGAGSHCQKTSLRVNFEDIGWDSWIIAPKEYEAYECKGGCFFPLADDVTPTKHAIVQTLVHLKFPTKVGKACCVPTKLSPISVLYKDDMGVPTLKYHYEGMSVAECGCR
# activin B = target: T4, activin B (UniProt P09529 293-407)
# T4 sequence (looked up): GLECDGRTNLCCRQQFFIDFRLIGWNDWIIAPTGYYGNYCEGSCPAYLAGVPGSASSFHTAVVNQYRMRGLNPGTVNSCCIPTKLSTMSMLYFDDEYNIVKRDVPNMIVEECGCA
# GDF11 [3] = target: T1, GDF11; remark: listed apart in the source
# BMP10 = target: T5, BMP10 (UniProt O95393 317-424)
# T5 sequence (looked up): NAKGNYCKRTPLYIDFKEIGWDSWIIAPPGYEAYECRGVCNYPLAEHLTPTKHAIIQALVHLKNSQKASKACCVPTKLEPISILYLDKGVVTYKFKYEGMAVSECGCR
# activin A [4] = target: T2, activin A; remark: listed apart in the source
# GDF8 = target: T6, GDF8 (UniProt O14793 267-375)
# T6 sequence (looked up): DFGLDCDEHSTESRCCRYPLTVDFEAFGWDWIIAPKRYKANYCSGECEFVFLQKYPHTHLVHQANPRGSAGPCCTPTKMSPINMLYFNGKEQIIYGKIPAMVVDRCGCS
Binder,IC50 (ng/mL); A204 CAGA12 luciferase reporter (GDF11 [1]),IC50 (ng/mL); A204 CAGA12 luciferase reporter (activin A [2]),IC50 (ng/mL); A204 CAGA12 luciferase reporter (BMP9),IC50 (nM); A204 CAGA12 luciferase reporter (activin B),IC50 (nM); A204 CAGA12 luciferase reporter (GDF11 [3]),IC50 (nM); A204 CAGA12 luciferase reporter (BMP10),IC50 (nM); A204 CAGA12 luciferase reporter (activin A [4]),IC50 (nM); A204 CAGA12 luciferase reporter (GDF8)
ActRIIB(F82I)-G1Fc (Fc fusion) GRGEAETRECIYYNANWELERTNQSGLERCEGEQDKRLHCYASWRNSSGTIELVKKGCWLDDINCYDRQECVATEENPQVYFCCCEGNFCNERFTHLPEAGGPEVTYEPPPTAPTG[human IgG1 Fc and a few adjoining residues not shown],9 ng/mL,11 ng/mL,277 ng/mL,,,,,
ActRIIB(F82K)-G1Fc (Fc fusion) GRGEAETRECIYYNANWELERTNQSGLERCEGEQDKRLHCYASWRNSSGTIELVKKGCWLDDKNCYDRQECVATEENPQVYFCCCEGNFCNERFTHLPEAGGPEVTYEPPPTAPTG[human IgG1 Fc and a few adjoining residues not shown],15 ng/mL,10 ng/mL,~5000 ng/mL,,,,,
ActRIIB(F82K-N83R)-G1Fc (Fc fusion) GRGEAETRECIYYNANWELERTNQSGLERCEGEQDKRLHCYASWRNSSGTIELVKKGCWLDDKRCYDRQECVATEENPQVYFCCCEGNFCNERFTHLPEAGGPEVTYEPPPTAPTG[human IgG1 Fc and a few adjoining residues not shown],,,,0.09 nM,,0.53 nM,1.32 nM,
ActRIIB(F82T-N83R)-G1Fc (Fc fusion) GRGEAETRECIYYNANWELERTNQSGLERCEGEQDKRLHCYASWRNSSGTIELVKKGCWLDDTRCYDRQECVATEENPQVYFCCCEGNFCNERFTHLPEAGGPEVTYEPPPTAPTG[human IgG1 Fc and a few adjoining residues not shown],,,,0.11 nM,17.9 nM,12.6 nM,1.52 nM,
ActRIIB(F82I-N83R)-G1Fc (Fc fusion) GRGEAETRECIYYNANWELERTNQSGLERCEGEQDKRLHCYASWRNSSGTIELVKKGCWLDDIRCYDRQECVATEENPQVYFCCCEGNFCNERFTHLPEAGGPEVTYEPPPTAPTG[human IgG1 Fc and a few adjoining residues not shown],,,,0.08 nM,9.95 nM,13.2 nM,1.67 nM,

# The next lines start with the values.
IC50 (ng/mL); A204 CAGA12 luciferase reporter (GDF11 [1]),IC50 (ng/mL); A204 CAGA12 luciferase reporter (activin A [2]),IC50 (ng/mL); A204 CAGA12 luciferase reporter (BMP9),IC50 (nM); A204 CAGA12 luciferase reporter (activin B),IC50 (nM); A204 CAGA12 luciferase reporter (GDF11 [3]),IC50 (nM); A204 CAGA12 luciferase reporter (BMP10),IC50 (nM); A204 CAGA12 luciferase reporter (activin A [4]),IC50 (nM); A204 CAGA12 luciferase reporter (GDF8),Binder
,,,0.1 nM,> 100 nM,> 100 nM,,,ActRIIB(L79H-F82K)-G1Fc (Fc fusion) GRGEAETRECIYYNANWELERTNQSGLERCEGEQDKRLHCYASWRNSSGTIELVKKGCWHDDKNCYDRQECVATEENPQVYFCCCEGNFCNERFTHLPEAGGPEVTYEPPPTAPTG[human IgG1 Fc and a few adjoining residues not shown]
11 ng/mL,15 ng/mL,122 ng/mL,,,,,,ActRIIB(K55A)-G1Fc (Fc fusion) GRGEAETRECIYYNANWELERTNQSGLERCEGEQDARLHCYASWRNSSGTIELVKKGCWLDDFNCYDRQECVATEENPQVYFCCCEGNFCNERFTHLPEAGGPEVTYEPPPTAPTG[human IgG1 Fc and a few adjoining residues not shown]
14 ng/mL,19 ng/mL,290 ng/mL,,,,,,ActRIIB(K55E)-G1Fc (Fc fusion) GRGEAETRECIYYNANWELERTNQSGLERCEGEQDERLHCYASWRNSSGTIELVKKGCWLDDFNCYDRQECVATEENPQVYFCCCEGNFCNERFTHLPEAGGPEVTYEPPPTAPTG[human IgG1 Fc and a few adjoining residues not shown]
,,,0.07 nM,0.24 nM,> 100 nM,> 10 nM,5.76 nM,ActRIIB(L79H)-G1Fc (Fc fusion) GRGEAETRECIYYNANWELERTNQSGLERCEGEQDKRLHCYASWRNSSGTIELVKKGCWHDDFNCYDRQECVATEENPQVYFCCCEGNFCNERFTHLPEAGGPEVTYEPPPTAPTG[human IgG1 Fc and a few adjoining residues not shown]
,,,0.15 nM,0.36 nM,> 100 nM,> 100 nM,> 10 nM,ActRIIB(L79H-F82I)-G1Fc (Fc fusion) GRGEAETRECIYYNANWELERTNQSGLERCEGEQDKRLHCYASWRNSSGTIELVKKGCWHDDINCYDRQECVATEENPQVYFCCCEGNFCNERFTHLPEAGGPEVTYEPPPTAPTG[human IgG1 Fc and a few adjoining residues not shown]

# — patent US20230183319A1 (ACCELERON PHARMA, published 2023)
